# Assay results taken from paper PMC4336329 (PLoS ONE, 2015).
# The campaign covered roughly 310,000 compounds. About 14,000 (4.5%) showed an effect of 50% or more. The effect is printed as a negative number. This is one part of the list.
# Biological target: human ether-à-go-go-related gene (hERG) potassium channel (human, UniProt Q12809)
# Test: primary screen, population patch clamp on CHO cells stably expressing hERG
# 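Further: peak tail current of the secondary pulse compared with the same well before compound.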
# Chain of human ether-à-go-go-related gene (hERG) potassium channel (Q12809 whole entry, looked up): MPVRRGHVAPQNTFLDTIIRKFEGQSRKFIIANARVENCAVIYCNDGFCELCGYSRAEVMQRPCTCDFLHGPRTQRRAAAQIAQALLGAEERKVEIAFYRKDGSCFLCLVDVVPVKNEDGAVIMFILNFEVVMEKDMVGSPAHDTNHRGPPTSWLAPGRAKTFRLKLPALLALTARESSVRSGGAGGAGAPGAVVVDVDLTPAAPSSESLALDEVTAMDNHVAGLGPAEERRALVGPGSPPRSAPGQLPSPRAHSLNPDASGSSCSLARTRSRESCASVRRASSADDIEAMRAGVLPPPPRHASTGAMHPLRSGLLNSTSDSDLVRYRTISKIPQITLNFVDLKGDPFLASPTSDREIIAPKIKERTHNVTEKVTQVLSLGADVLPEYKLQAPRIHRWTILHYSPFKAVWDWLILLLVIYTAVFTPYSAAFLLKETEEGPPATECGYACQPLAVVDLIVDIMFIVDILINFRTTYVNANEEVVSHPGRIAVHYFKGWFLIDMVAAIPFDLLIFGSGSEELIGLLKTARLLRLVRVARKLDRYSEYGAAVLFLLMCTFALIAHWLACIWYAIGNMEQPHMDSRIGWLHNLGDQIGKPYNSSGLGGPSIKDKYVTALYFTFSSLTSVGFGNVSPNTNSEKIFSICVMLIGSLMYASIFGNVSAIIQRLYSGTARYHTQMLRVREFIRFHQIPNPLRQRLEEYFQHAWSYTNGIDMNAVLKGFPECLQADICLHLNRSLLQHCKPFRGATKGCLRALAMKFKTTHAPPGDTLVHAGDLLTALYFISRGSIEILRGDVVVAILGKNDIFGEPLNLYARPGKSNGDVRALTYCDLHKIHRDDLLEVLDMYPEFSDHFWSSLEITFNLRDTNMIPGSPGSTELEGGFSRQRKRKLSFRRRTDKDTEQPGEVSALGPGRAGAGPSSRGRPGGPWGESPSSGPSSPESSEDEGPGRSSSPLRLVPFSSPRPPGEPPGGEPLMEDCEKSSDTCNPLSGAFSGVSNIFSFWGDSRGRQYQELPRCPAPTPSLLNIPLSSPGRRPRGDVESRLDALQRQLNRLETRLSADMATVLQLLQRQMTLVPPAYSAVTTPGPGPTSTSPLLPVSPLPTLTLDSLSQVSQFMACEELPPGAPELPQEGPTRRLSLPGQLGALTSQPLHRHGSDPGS
row,SMILES,"hERG current change (%, negative = inhibition) at 10uM [%]"
1,O=C(Nc1ccc2c(c1)CCC2)c1ccc(Cl)nc1,-7.3
2,Cc1cc2cc(C)c3nnc(SCC(=O)Nc4ccc(S(=O)(=O)N5CCCCC5C)cc4)n3c2cc1C (centres unmarked),4.05
3,Cc1ccc(-c2nn(-c3ccccc3)cc2CN(C)C(=O)CCC(=O)O)cc1C,16.1
4,O=C(N/N=C/c1cc2c(cc1Br)OCO2)c1c[nH]c2ccccc12,14.2
5,CCn1cc([N+](=O)[O-])c(C(=O)N2CCCCCC2)n1,17.1
6,COc1ccc(CCCc2nnc(SCC(=O)NN)o2)cc1,9.04
7,Cc1ccc(-c2noc(CCC(N)=O)n2)cc1,-4.28
8,COc1cccc(-c2nnc(SCC(=O)N3CCOCC3)o2)c1,4.32
9,Cc1c(NC(=O)c2cc3nc(-c4ccccc4)cc(C)n3n2)c(=O)n(-c2ccccc2)n1C,-8.61
10,Cc1cccn2c(=O)c3cc(C(=O)NCc4ccco4)c(=N)n(CCc4ccccc4)c3nc12,-76.5
11,COC(=O)c1ccc(OC(=O)c2ccc(OC)cc2)c(OC)c1,11.8
12,COc1ccc(N/C(C)=C2/C(=O)C(=O)N(CCO)C2c2ccc([N+](=O)[O-])cc2)cc1 (centres unmarked),-67.3
13,COc1cc(/C=N\NC(=O)C2CC3C=CC2C3)ccc1O (centres unmarked),12
14,Cc1ccc2[nH]c3c(c2c1)CCC3=O,1.27
15,CCCCC(=O)NC(=S)NNC(=O)c1ccc(OC)cc1,13
16,Cc1cccc(C)c1NS(=O)(=O)c1ccc(OCCNS(C)(=O)=O)cc1,-4.99
17,Cc1cc(Nc2ccccc2)n(-c2nc3ccccc3[nH]2)n1,-4.71
18,CCN(C(=O)COC(=O)COc1ccccc1Cl)c1c(N)n(Cc2ccccc2)c(=O)[nH]c1=O,8.77
19,CCN(CC)C(=O)CN1C(=O)C2(OCC(C)(C)CO2)c2ccccc21,4.84
20,CCCCc1nnc(NC(=O)CN2C(=O)C3CCCCC3C2=O)s1 (centres unmarked),2.03
21,COc1cc(OC)cc(C(C(=O)NCc2ccccc2)N(Cc2ccco2)C(=O)c2ccno2)c1 (centres unmarked),-28.1
22,CCOC(=O)N1CCC(N2CCN(c3cc(C)ccc3C)CC2)CC1,-51.2
23,CCOC(=O)c1c(NC(=O)C2c3ccccc3Oc3ccccc32)sc(C(C)=O)c1C,27.9

row,SMILES,"hERG current change (%, negative = inhibition) at 10uM [%]"
1,Cc1cc(C(F)F)n2ncc(C(=O)N3CCc4ccccc4C3)c2n1,-24
2,Cn1c(=O)[nH]c2nc[nH]c2c1=O,18.7
3,Cc1cc(C)n(C(C)CC(=O)Nc2ccc(-c3ccno3)cc2)n1 (centres unmarked),1.47
4,Cc1ccc2c(c1)N(CCCC(=O)Nc1cccc(C(F)(F)F)c1)C(=O)CO2,12.9
5,Cc1nn(-c2nnc(NCc3ccccc3)nn2)c(C)c1Br,-8.53
6,COC(=O)CC1=NN(c2nc(C)cc(C)n2)C(=O)C1,16.9
7,COc1ccccc1NC(=O)c1sc2nc(-c3ccco3)ccc2c1N,1.24
8,Cc1ccc(C(C(=O)NC2CCCCC2)N(C(=O)CCCC(=O)Nc2ccccn2)c2ccc3c(c2)OCCO3)cc1 (centres unmarked),-3.99
9,COC(=O)/C(=C\Nc1ccccc1)NC(=O)c1ccc(Cl)cc1Cl,-17.2
10,O=C1CCC(=O)N1c1ccc(S(=O)(=O)Nc2cccc([N+](=O)[O-])c2)cc1,35.3
11,Fc1ccc(Cn2cc(C(=S)N3CCOCC3)c3ccccc32)cc1,0.0885
12,CC1CCN(Cc2c(O)ccc3c2O/C(=C\c2ccco2)C3=O)CC1,-14.1
13,O=C(CN1C(=O)NC2(CCCCC2)C1=O)NCC(=O)Nc1ccc(F)c(F)c1,-0.566
14,Cc1ccc(N2C(=O)NC(=O)/C(=C\c3cc(C)n(-c4cc(C(=O)O)cc(C(=O)O)c4)c3C)C2=O)cc1,15
15,Cc1ccc(S(=O)(=O)N2CCC(C(=O)N3CC(C)OC(C)C3)CC2)cc1 (centres unmarked),9.16
16,CCn1nc(C)c(CN2CCCCC2C(=O)Nc2ccc(Oc3cccnc3)cc2)c1C (centres unmarked),-15.9
17,CN(C)CCNc1c2c(c(C#N)c3nc4ccccc4n13)CCCC2,-23.5
18,C=CCc1cc(C)ccc1OCCOCCn1ccnc1.O=C(O)C(=O)O,-30.7
19,COc1ccc(C)cc1NC(=O)C1CCN(S(=O)(=O)c2cccc3cccnc23)CC1,-21
20,COc1ccc2c(CC(=O)Nc3nccs3)coc2c1,19.7
21,COc1cc(C=O)ccc1OCCCOc1ccc([N+](=O)[O-])cc1,-10.8
22,COc1ccc(NC(=O)COC(=O)C2CC(=O)N(CCc3ccc(OC)c(OC)c3)C2)cc1Cl (centres unmarked),-10.6
23,Cc1ccc(-n2c(C)nnc2SCC(=O)N(C)c2c(N)n(Cc3ccccc3)c(=O)[nH]c2=O)cc1,4.71

row,SMILES,"hERG current change (%, negative = inhibition) at 10uM [%]"
1,CCOc1ccccc1NC(=O)c1cccc2ccccc12,-6.91
2,N#C/C(=C\Nc1ccccc1SC(F)(F)F)c1nc(-c2ccc(F)cc2)cs1,11.3
3,Cc1cc(=O)[nH]c2ccc(Cl)cc12,3.12
4,CC(=O)c1ccccc1OCCOCCOCCOc1ccccc1C(C)=O,-29.7
5,NNc1nc2c(Cl)cccc2s1,4.87
6,Cc1cc(C)n2nc(N)c(N=Nc3cccc(Cl)c3)c2n1,10.7
7,CSCCC(NC(=O)c1ccco1)C(=O)O (centres unmarked),-0.773
8,CCCSP1(=S)NCCCO1 (centres unmarked),14.1
9,c1ccc2c(c1)[nH]c1nc(SCCN3CCOCC3)nnc12,-1.72
10,Cc1n[nH]c(=S)n1/N=C/c1ccc(Br)o1,12.5
11,O=C(NNc1c2ccccc2nc2ccccc12)C(O)c1ccccc1 (centres unmarked),-1.17
12,COc1cccc(N(C(=O)c2ccn[nH]2)C2(C(=O)Nc3c(C)cccc3C)CCCCC2)c1,-32
13,COc1ccc(NC(=O)CCCCC(=O)Nc2ccc(OC)cc2)cc1,14.7
14,CCC(C)NCC(O)(c1ccc(Cl)cc1)c1ccc(Cl)cc1 (centres unmarked),-37.7
15,CC1=C(C(=O)OCc2ccccc2)C(c2ccsc2)NC(=O)N1C (centres unmarked),-37.7
16,COc1ccc(-c2ccc3oc(-c4ccc(OC)cc4)c(C#CC4(O)CCCCC4)c3c2)cc1,17.8
17,CCC(Oc1ccccc1)C(=O)N1CCN(CC)CC1 (centres unmarked),14.9
18,CN1CCN(S(=O)(=O)c2ccc(-c3noc(C4CCN(S(C)(=O)=O)CC4)n3)cc2)CC1,2.81
19,CN(CC(=O)Nc1ccccc1C(=O)NC1CC1)Cc1ccc(Cl)cc1,-43.1
20,Cc1ccc(S(=O)(=O)N2CCN(C(=O)c3nn(C(C)C)c(=O)c4ccccc34)CC2)cc1C,-17
21,COc1ccc(C(CC(=O)O)NC(=O)c2ccco2)cc1OC (centres unmarked),1.57
22,CCOC(=O)C1(Cc2ccccc2)CCN(Cc2ccc(COC)o2)CC1,-19.1
23,COc1cc(-c2nnc(SCC(=O)N3CCOCC3)o2)cc(OC)c1OC,-5.11

row,SMILES,"hERG current change (%, negative = inhibition) at 10uM [%]"
1,COc1ccc(CCN(C)c2ccc(C(N)=O)cc2[N+](=O)[O-])cc1OC,-6.3
2,CCCCNc1nc(N)ncc1[N+](=O)[O-],6.58
3,CC1(C)Cc2cccc(OCC(=O)OCC(=O)Nc3ccccc3)c2O1,-7.6
4,COc1ccc(/C=N/NC(=O)c2ccc(N3CCCC3=O)cc2)cc1,3.31
5,Cn1c(=O)oc2cc(S(=O)(=O)NCCC(=O)NC3CCCc4ccccc43)ccc21 (centres unmarked),6.6
6,Cc1ccc(NC(=O)CSc2ccc(-c3cccnc3)nn2)c(C)c1,-22.3
7,C=C(C)C(=O)Nc1nnc(-c2cccs2)s1,-3.43
8,COC(=O)c1ccc(NC(=O)COC(=O)CSc2nc(C)cc(C)n2)cc1,7.58
9,O=C(Nc1nc2c(F)cc(F)cc2s1)c1ccccn1,3.01
10,Nc1nc(CN2CCc3ccccc3C2)nc(Nc2ccccc2)n1,-51
11,COc1cccc(NC(=S)N(CCc2nc3cc(C)c(C)cc3[nH]2)Cc2cccnc2)c1,4.24
12,Cc1cc(C)n(Cc2cc(C(=O)O)c3ccccc3n2)n1,11
13,Cc1ccc(S(=O)(=O)N2CCN(CC(=O)N3CCOCC3)CC2)cc1,16.8
14,Cc1cc2c(cc1C)C(c1ccccc1OC(C)C)CC(=O)N2 (centres unmarked),-2.1
15,COc1ccccc1C(=O)N/C(=C\c1ccccc1)C(=O)NCc1ccco1,-38.1
16,CC1=C(c2ccc(C(C)C)cc2)S(=O)(=O)N=C1N1CCN(C(=O)c2ccco2)CC1,-23.2
17,CCOc1ccc(C2CC(c3c(O)n(C)c(=O)n(C)c3=O)=NN2)cc1 (centres unmarked),-14.9
18,CN(C(=O)CSc1nncn1C)C1CCCN(Cc2ccccc2F)C1 (centres unmarked),0.0293
19,COc1ccc(C)cc1NC(=O)COC(=O)c1ccc2c(c1)OCO2,-2.14
20,O=C(N/N=C/c1cc2ccccc2nc1Cl)/C(=C/c1cccs1)NC(=O)c1ccccc1,-11.6
